77 compounds from PubChem BioAssay AID360 (National Center for Advancing Translational Sciences (NCATS), 2006) can be followed below.

Screen size: about 48,000 compounds; about 550 (1.1%) were called active. Another 4% or so got no clear call; they are omitted. Cut-off read from the data, not from the text of the source: active = potency below about 15 µM; inconclusive = mostly about 16 µM to 33 µM; inactive = weaker than that. Some of the results follow. Some results are limits rather than exact numbers.
Potency is the fitted concentration of half-maximal effect.

Sequence of UniProt P04062 (P04062 whole entry, looked up): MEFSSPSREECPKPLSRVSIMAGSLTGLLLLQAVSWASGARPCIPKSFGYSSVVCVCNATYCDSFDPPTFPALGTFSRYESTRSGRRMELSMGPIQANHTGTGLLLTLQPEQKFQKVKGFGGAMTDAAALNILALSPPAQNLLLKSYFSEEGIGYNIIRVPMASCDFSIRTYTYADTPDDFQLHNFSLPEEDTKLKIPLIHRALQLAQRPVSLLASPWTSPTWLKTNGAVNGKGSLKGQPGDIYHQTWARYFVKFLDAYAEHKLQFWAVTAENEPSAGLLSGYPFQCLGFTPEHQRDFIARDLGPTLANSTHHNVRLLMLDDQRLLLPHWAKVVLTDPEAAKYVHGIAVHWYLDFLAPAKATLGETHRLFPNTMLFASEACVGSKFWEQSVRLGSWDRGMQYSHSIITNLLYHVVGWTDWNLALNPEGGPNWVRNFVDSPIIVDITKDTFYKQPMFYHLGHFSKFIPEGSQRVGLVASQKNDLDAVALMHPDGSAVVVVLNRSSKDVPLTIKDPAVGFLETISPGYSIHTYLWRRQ

In this test the target is Lysosomal acid glucosylceramidase (Homo sapiens) (UniProt P04062). In words: Glucocerebrosidase.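 Note: the screen sought inhibitors.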 Conditions: purified enzyme, resorufin glucoside fluorescence (screen aimed at inhibitors), 20 min. The essentials:
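Compounds titrated against 0.2 nM normal enzyme, 30 uM resorufin beta-D-glucopyranoside substrate, citrate/phosphate buffer with taurocholate and tween-20, pH 5.9. Reaction ran 20 min at room temperature; fluorescence (Ex 548/Em 600) gave AC50.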
For the compound `O=C1NC(=O)[C@]2(Cc3ccccc3N3CCN(c4ccccc4)CC32)C(=O)N1c1ccccc1` (some centres not stated), the Potency is inactive: > 76.9 µM.
The value for `CC(=NCCC1=CCCCC1)c1c(O)n(C)c(=O)n(C)c1=O` was inactive: > 76.9 µM.
The value for `Cc1ccc(N2C(=O)CC(=O)NC2=O)cc1` was inactive: > 76.9 µM; that for `Cc1nn(Cc2ccccc2Cl)c(Cl)c1C(=O)OCC(=O)NCc1ccco1` was inactive: > 76.9 µM.
Regarding `CN1C(=O)c2ccccc2Sc2ccc(C(=O)N3CCC4(CC3)OCCO4)cc21`, the Potency was inactive: > 76.9 µM.
Consider `CCCCn1c(O)c(C(C)=Nc2c(C)n(C)n(-c3ccccc3)c2=O)c(=O)[nH]c1=O`, for which the Potency was inactive: > 76.9 µM.
For `CCCCN1C(=O)NC(=O)C2(Cc3c(nc4c(C)cccn4c3=O)N3CCc4ccccc4C32)C1=O` (configuration not stated), the Potency was inactive: > 76.9 µM.
In the case of `CCC(=O)N1CCN(CCN=Cc2c(O)n(C)c(=O)n(C)c2=O)CC1`, the Potency was inactive: > 76.9 µM.
`C[n+]1ccc(-c2ccncc2)cc1`: the Potency was inactive: > 76.9 µM.
The value for `COc1ccc(C2NCc3ccc4c(c3-n3cccc32)OCO4)cc1O` (configuration not stated) was inactive: > 76.9 µM; that for `COC(=O)CC1NC2CCCCC2NC1=O` (configuration not stated) was inactive: > 76.9 µM.
The figure for `Cc1nonc1-c1nc(-c2nonc2N)n[nH]1` is inactive: > 76.9 µM; for `CCOC(=O)c1[nH]c(C)c(C(=O)N2CCC3(CC2)OCCO3)c1C` it is inactive: > 76.9 µM.
Take `CCn1nc(-c2ccccc2)nc2c(=O)n(C)c(=O)nc1-2`: the Potency was inactive: > 76.9 µM.
The value for `Cc1ccc(CN2CCN(CC(=O)N3CCC4(CC3)OCCO4)C2=O)cc1` was inactive: > 76.9 µM; that for `C(=NC12CN3CN(CN(C3)C1)C2)c1cccnc1` was inactive: > 76.9 µM; that for `O=C(c1cc2cc3ccc(Cl)cc3nc2o1)N1CCC2(CC1)OCCO2` was inactive: > 76.9 µM.
The figure for `O=c1c2ccccc2nc(CN2CCOCC2)n1-c1ccccc1F` is inactive: > 76.9 µM; for `COC(=O)c1ccc(N2C(=O)CC(N3CCC(n4c(=O)[nH]c5ccccc54)CC3)C2=O)cc1` (configuration not stated) it is inactive: > 76.9 µM.
On to `CCOC(=O)C1C(=O)N(C)C2(C)CC1c1ccccc1O2` (configuration not stated), for which the Potency was inactive: > 76.9 µM.
The value for `Cc1cc(OC(=O)CCNC(=O)OC(C)(C)C)c2c3c(c(=O)oc2c1)CCC3` was inactive: > 76.9 µM; that for `CCOC(=O)c1c(C)n(COCCO)c2ccc(O)cc12` was inactive: > 76.9 µM.
The figure for `O=C(CNS(=O)(=O)c1cccs1)N1CCC2(CC1)OCCO2` is inactive: > 76.9 µM; for `Cc1ccnc(-n2c(-c3ccco3)nc3ccccc3c2=O)c1` it is inactive: > 76.9 µM.
The value for `Cc1ccc2c(c1)N(CCC(=O)N1CCC3(CC1)OCCO3)C(=O)C(C)O2` (configuration not stated) was inactive: > 76.9 µM.
Consider `O=c1c2ccccc2nc(-c2ccco2)n1-c1ccc(Br)cn1`, for which the Potency is inactive: > 76.9 µM.
The value for `O=P(O)(O)C12CC3CC(CC(C3)C1)C2` was inactive: > 76.9 µM.
The value for `C/C(CCc1c[nH]c2ccccc12)=N\O` was inactive: > 76.9 µM; that for `O=P1(NCc2ccco2)COc2ccccc2OC1` was inactive: > 76.9 µM; that for `Cc1cc(NC(=O)COC(=O)c2c(C)nn(Cc3ccccc3Cl)c2Cl)no1` was inactive: > 76.9 µM.
`CCN(CC)CCN=Cc1c(O)n(C2CCCCCC2)c(=O)[nH]c1=O`: the Potency was inactive: > 76.9 µM.
The value for `CCCCCn1c(=O)c(C(=O)NCc2ccncc2)c(O)c2ccccc21` was inactive: > 76.9 µM; that for `CC1=C(C(=O)N2CCC3(CC2)OCCO3)C2(CCC(C)CC2)OC1=O` (configuration not stated) was inactive: > 76.9 µM; that for `O=C(Nc1cccc(OC(=O)N2CCCCC2)c1)N1CCCCC1` was inactive: > 76.9 µM.
Take `O=C(c1ccc2c(c1)ncn2C1CCCCCC1)N1CCC2(CC1)OCCO2`: the Potency is inactive: > 76.9 µM.
The figure for `Cc1ccc(-n2c(O)c(C=NC3CCCC3)c(=O)[nH]c2=O)c(C)c1` is inactive: > 76.9 µM.
The figure for `O=C1NC(=O)C2(Cc3ccccc3N3CCCC32)C(=O)N1Cc1ccccc1` (configuration not stated) is inactive: > 76.9 µM; for `CC(=NCCCN1CCOCC1)c1c(O)n(Cc2ccccc2)c(=O)[nH]c1=O` it is inactive: > 76.9 µM; for `Cn1c(=O)cc(SCC(=O)N2CCC3(CC2)OCCO3)c2ccc(Cl)cc21` it is inactive: > 76.9 µM.
As to `COc1cc(CN2CCN(c3cc(C)ccc3C)CC2)ccc1O`, the Potency was inactive: > 76.9 µM.
In the case of `Cc1cccc(-n2c(O)c(C=NCc3cccnc3)c(=O)[nH]c2=O)c1C`, the Potency was inactive: > 76.9 µM.
Consider `O=C1NC(=O)N(C2CCCCC2)C(=O)C1C1c2ccccc2C(=O)N1Cc1ccccc1` (configuration not stated), for which the Potency was inactive: > 76.9 µM.
The figure for `O=C(C1CC(=O)N(c2ccc(F)c(Cl)c2)C1)N1CCC2(CC1)OCCO2` (configuration not stated) is inactive: > 76.9 µM; for `O=P1(NC2CCCC2)COc2ccccc2OC1` it is inactive: > 76.9 µM; for `COc1cccc(-n2nc(C(=O)N3CCC4(CC3)OCCO4)c3ccccc3c2=O)c1` it is inactive: > 76.9 µM.
The value for `O=P(/C(=N/O)N1CCCCC1)(N1CCOCC1)N1CCOCC1` was inactive: > 76.9 µM; that for `Cc1cc(N2C(=O)C3CCCN3C2c2ccc(Cl)c(Cl)c2)no1` (configuration not stated) was inactive: > 76.9 µM.
For `O=C1CC(=O)N(c2ccc3c(c2)OCO3)C(=O)N1`, the Potency is inactive: > 76.9 µM.
The figure for `O=C(COc1ccc(S(=O)(=O)N2CCCCC2)cc1)N1CCN(Cc2ccccc2)CC1` is inactive: > 76.9 µM; for `O=c1[nH]c(=O)n(-c2cccc(Cl)c2)c(O)c1/C=N/c1ccccn1` it is inactive: > 76.9 µM.
The value for `NC(=O)CN1C2CCC1CC(NC(=O)C1CC1)C2` (configuration not stated) was inactive: > 76.9 µM; that for `COc1ccccc1N(CC(=O)NC1CCCCC1)C(=O)c1cnn(C(C)C)c1` was inactive: > 76.9 µM; that for `O=C(Nc1cccnc1)c1c(O)c2c(n(Cc3ccccc3)c1=O)CCCC2` was inactive: > 76.9 µM.
The value for `COc1ccc(C(CC(=O)N2CCC3(CC2)OCCO3)NS(=O)(=O)c2ccc(OC)cc2)cc1` (configuration not stated) was inactive: > 76.9 µM; that for `C=CCn1c(O)c(C(C)=NC2CC2)c(=O)[nH]c1=O` was inactive: > 76.9 µM.
On to `CSCCC(N=Cc1c(O)n(-c2ccc(F)cc2)c(=O)[nH]c1=O)C(=O)O` (configuration not stated), for which the Potency was inactive: > 76.9 µM.
The figure for `O=C(c1cc(-c2ccccc2)nc2ccccc12)N1CCC2(CC1)OCCO2` is inactive: > 76.9 µM.
As to `CCC(=NCc1cccnc1)c1c(O)n(C2CCCCC2)c(=O)[nH]c1=O`, the Potency is inactive: > 76.9 µM.
In the case of `C[N+]12CCC(CC1)C(C#N)(N1CCOCC1)C2` (configuration not stated), the Potency was inactive: > 76.9 µM.
For the compound `O=C(c1cccc(N2CCCC2=O)c1)N1CCC2(CC1)OCCO2`, the Potency is inactive: > 76.9 µM.
The figure for `NC(=O)C1(N2CCCCC2)CCN(Cc2ccccc2)CC1` is inactive: > 76.9 µM; for `Cc1nc2cc(C(F)(F)F)ccc2n1C1CCN(Cc2nnnn2Cc2ccc3c(c2)OCO3)CC1` it is inactive: > 76.9 µM.
The value for `CC(c1ccc(F)cc1)n1cc(C(=O)NCc2ccc3c(c2)OCO3)nn1` (configuration not stated) was inactive: > 76.9 µM; that for `C[C@H]1CCC[C@@H](O)CCC/C=C/c2cc(O)cc(O)c2C(=O)O1` was inactive: > 76.9 µM.
The figure for `COCCOC(=O)C1=C(N)Oc2c(c(=O)oc3ccccc23)C1c1ccncc1` (configuration not stated) is inactive: > 76.9 µM; for `COc1ccc(NC(=O)CN2C3CCC2CC(O)(c2cccnc2)C3)cc1OC` (configuration not stated) it is inactive: > 76.9 µM; for `O=C(C(Cc1ccccc1)NS(=O)(=O)c1cccc2nsnc12)N1CCC2(CC1)OCCO2` (configuration not stated) it is inactive: > 76.9 µM.
As for `O=C1C2CCCN2C(c2ccc(Cl)c(Cl)c2)N1c1ccccn1` (configuration not stated), the Potency is inactive: > 76.9 µM.
With `CC(=O)c1cccc(OCC(O)CN2CC=C(c3ccccc3)CC2)c1` (configuration not stated), the Potency is inactive: > 76.9 µM.
The figure for `Cc1ccc(CS(=O)(=O)CCC(=O)N2CCC3(CC2)OCCO3)cc1` is inactive: > 76.9 µM; for `CCOC(=O)c1cncn1C(C)c1ccccc1` (configuration not stated) it is inactive: > 76.9 µM; for `COc1ccccc1CC1/C(=N/O)C2CCN1CC2` (configuration not stated) it is inactive: > 76.9 µM.
The value for `CC1CC2(O)c3nonc3CCC2N1O` (configuration not stated) was inactive: > 76.9 µM.
On to `Cc1cc(C)c(C(=O)CN2CCOCC2)c(C)c1`, for which the Potency is inactive: > 76.9 µM.
For the compound `CCCCn1c(O)c(C(C)=Nc2cccc(C(=O)O)c2)c(=O)[nH]c1=O`, the Potency was inactive: > 76.9 µM.
Consider `COc1ccc(-n2c(O)c(C(C)=NCc3ccco3)c(=O)[nH]c2=O)cc1`, for which the Potency was inactive: > 76.9 µM.
As to `CCOc1ccccc1N=C1SCCCN1C`, the Potency was inactive: > 76.9 µM.
